Results published in PubChem BioAssay AID686979 (National Center for Advancing Translational Sciences (NCATS), 2013).
Hit rate of the full screen: of about 420,000 compounds, about 50,000 (12%) were called active. The shares of active, inactive and inconclusive entries below differ from those in the screen. Calls come from the whole dose curve; as a rule, active = well fitted inhibition curve with a large enough effect; inconclusive = small, poorly fitted or top-dose-only effect; inactive = flat fitted curve, though single readings scatter. No potency is given beside an inconclusive call; the fits are too rough.

experiment: qHTS for Inhibitors of human tyrosyl-DNA phosphodiesterase 1 (TDP1): qHTS in cells in presence of CPT; conditions: chicken DT40 Tdp1-/-;hTDP1 cells + 20 nM CPT, ATP luminescence, 48 h; activity change, negative = growth inhibition: at 46.2 µM (top of the series); note: nearly all actives have a fitted effect of over 55% in size
Method in brief: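 Chicken DT40 Tdp1-/- cells complemented with human TDP1, 400 cells/well, exposed to compounds plus 20 nM camptothecin for at least 48 h at 37 C; viability read as ATP content by CellTiter-Glo luminescence.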
% is set by controls: 0 for no effect and ±100 for the full control effect; potency is the fitted concentration of half-maximal effect; tags give direction and shape of the fitted curve.

SMILES | Potency | activity change, negative = growth inhibition
Cc1cc(-c2ccccc2)nc2cc(C(=O)NCc3ccco3)nn12 | inconclusive [inhibitor, single point] | –
CCCN(CCC)c1nc(C#N)nc(N(CCC)CCC)n1 | inconclusive [inhibitor, single point] | –
CCCCOc1ccc(CN2C(=O)C(=O)c3cc(Br)cc(C)c32)cc1OC | active: 0.82 µM | –
COc1ccc(S(=O)(=O)N(C)C[C@H]2Oc3ncc(Br)cc3C(=O)N([C@@H](C)CO)C[C@@H]2C)cc1 | inconclusive [inhibitor, partial curve] | –
COc1ccc(C(=O)NCc2ccccc2CN2CCCC2)cc1S(=O)(=O)N1CCOCC1 | – | inactive: -4.31%
O=C(CNS(=O)(=O)c1ccc(Cl)cc1)N1CCN(c2ccc(F)cc2)CC1 | inconclusive [inhibitor, single point] | –
CC(C)Nc1nnc(SCC(=O)Nc2sccc2C#N)s1 | inconclusive [inhibitor, single point] | –
COCCNc1c([N+](=O)[O-])c(=O)n(-c2ccccc2)c2ccccc12 | inconclusive [inhibitor, single point] | –
CCOc1ccccc1NC(=O)CCCNC(=O)Cn1cnc2sc(C)c(C)c2c1=O | – | inconclusive: -34.3% [inhibitor]
O=C(NCc1ccccc1Cl)C1CCCN(C(=O)c2cnn(-c3ccccc3)c2-n2cccc2)C1 (configuration not stated) | inconclusive [inhibitor, single point] | –
COc1ccc(CNC(=O)O[C@]23C[C@H]4C(=O)N(c5ccccc5)C(=O)[C@H]4C[C@@]2(O)CN(S(=O)(=O)c2ccc(C)cc2)C3)cc1OC | – | inactive: -4.74%
CN(C(=O)C1Cc2c(-c3ccc(Cl)cc3)ccnc2O1)c1ccccc1 (configuration not stated) | inconclusive [inhibitor, single point] | –
Cc1cc(NC(=O)CS(=O)(=O)c2cn(Cc3cccc(C(F)(F)F)c3)c3ccccc23)no1 | inconclusive [inhibitor, partial curve] | –
COc1cccc(/C(C)=N/NS(=O)(=O)c2ccc(Cl)cc2)c1 | – | inactive: 2.88%
CCCCCCSc1cc(-c2nc3ccc(C)cn3c2NCCCC)ccc1OC | inconclusive [inhibitor, single point] | –
O=C(NO)c1ccc(C(=O)N(C2CCCCC2)C2CCCCC2)cc1 | active: 16.4 µM | –
CCCCc1ccc(NC(=S)NCCO)cc1 | – | inactive: 9.2%
CC(C)(Oc1ccc(Cl)cc1)C(=O)N1CCN(c2ccccn2)CC1 | inconclusive [inhibitor, single point] | –
Cc1nn(-c2ccc(F)cc2)c2sc(C(=O)N3CCCCCC3)cc12 | inconclusive [inhibitor, single point] | –
FC(F)(F)c1cc(NCc2cccs2)n2ncnc2n1 | – | inactive: -8.3%
OC(COc1c(F)cc(Br)cc1F)CN1CCN(c2ccc(F)cc2)CC1 (configuration not stated) | inconclusive [inhibitor, single point] | –

SMILES | Potency | activity change, negative = growth inhibition
Cc1ccc(NC2=C/C(=N/S(=O)(=O)c3cccs3)c3ccccc3C2=O)cc1C | inconclusive [inhibitor, partial curve] | –
Cc1cc(Cl)c2oc(C(=O)NC(C)c3ccncn3)c(C)c2c1 (configuration not stated) | inconclusive [inhibitor, partial curve, poor fit] | –
Cc1cc(Br)cn2c(Cc3cccc(F)c3)c(-c3cccc(Br)c3)nc12 | inconclusive [inhibitor, partial curve] | –
Cc1c(C(=O)O)cnc2c([N+](=O)[O-])cnn12 | active: 10.3 µM | –
CN(CCCNC(=O)CSc1cc(=O)n(C)c2cc(Cl)ccc12)Cc1ccccc1 | inconclusive [inhibitor, single point] | –
Cc1ccc2c(c1)-c1nc(-c3ccc4c(c3)NC(=O)CO4)cc(-c3ccc(F)cc3)c1CO2 | active: 5.8 µM | –
Cc1cc(NC(=O)c2cc3n(n2)C(C(F)(F)F)CC(c2ccc(Cl)c(Cl)c2)N3)no1 (configuration not stated) | inconclusive [inhibitor, single point] | –
Cc1nc(SCC(=O)OCc2ccccc2)c2c(=O)n(C)c(=O)n(C)c2n1 | inconclusive [inhibitor, partial curve] | –
COC(=O)c1cc(NC(=O)CC2SC(=Nc3ccccc3)N(CCc3c[nH]c4ccccc34)C2=O)cc(C(=O)OC)c1 (configuration not stated) | active: 16.4 µM | –
CN1CCN(c2ncc3nc(-c4ccccc4)c(=O)n(C)c3n2)CC1 | inconclusive [inhibitor, full curve] | –
COCCSc1ccccc1C(=O)Nc1cc(C)ccn1 | inconclusive [inhibitor, single point] | –
COc1ccc(CCNC(=O)c2nn(C)c3c2CS(=O)(=O)c2ccccc2-3)cc1OC | – | inactive: -1.22%
CCN(CC)CCNC(=O)c1cc(-c2cccnc2)nc2ccc(S(=O)(=O)N3CCC(C)CC3)cc12 | inconclusive [inhibitor, single point] | –
C[C@H](NC(=O)c1nc[nH]c1C(=O)N[C@@H](C)c1ccccc1)c1ccccc1 | inconclusive [inhibitor, single point] | –
CCc1nc2c(OCCOc3ccccc3)cccn2c1N(C)C(=O)c1ccccc1F | inconclusive [inhibitor, single point] | –
CCOC(=O)c1cnn2c(C(F)(F)F)cc(-c3cn(C)nc3C)nc12 | inconclusive [inhibitor, single point] | –
CN1CCN(C2Cc3cc(Cl)ccc3Sc3cc(F)ccc32)CC1 (configuration not stated) | inconclusive [inhibitor, single point] | –
Cc1ccc(C)c(CNc2ccc(S(=O)(=O)N3CCCCC3)cc2)c1 | active: 14.6 µM | –
CC1Cc2ccccc2N1c1ncnc2c1nnn2Cc1ccccc1 (configuration not stated) | – | inconclusive: -36.9% [inhibitor]
COc1ccccc1C(=O)Nc1c(C(=O)N(C)Cc2ccccc2)sc2nc(C)c(Cl)c(C)c12 | inconclusive [inhibitor, single point] | –
O=C(CSc1nnc(-c2ccc(O)cc2)o1)c1ccc(Br)cc1 | inconclusive [inhibitor, partial curve] | –
